{"source": "PubChem BioAssay AID504333", "about": "(National Center for Advancing Translational Sciences (NCATS), 2011)", "note": "Screen size: about 360,000 compounds; about 16,000 (4.4%) were called active. The shares of active, inactive and inconclusive entries below differ from those in the screen. The call rests on the fitted dose curve; in most records, active means well fitted inhibition curve with a large enough effect; inconclusive means small, poorly fitted or top-dose-only effect; inactive means no such curve, though single readings can be large or run the other way. Where the call is inconclusive, the potency comes from a doubtful curve fit. Potency means the concentration at half of the fitted maximal effect; tags describe the fitted curve by direction and shape."}
{"molecular_target": "Bromodomain adjacent to zinc finger domain protein 2B (Homo sapiens) (UniProt Q9UIF8)", "sequence (Q9UIF8 whole entry, looked up, the tested form may be a part)": "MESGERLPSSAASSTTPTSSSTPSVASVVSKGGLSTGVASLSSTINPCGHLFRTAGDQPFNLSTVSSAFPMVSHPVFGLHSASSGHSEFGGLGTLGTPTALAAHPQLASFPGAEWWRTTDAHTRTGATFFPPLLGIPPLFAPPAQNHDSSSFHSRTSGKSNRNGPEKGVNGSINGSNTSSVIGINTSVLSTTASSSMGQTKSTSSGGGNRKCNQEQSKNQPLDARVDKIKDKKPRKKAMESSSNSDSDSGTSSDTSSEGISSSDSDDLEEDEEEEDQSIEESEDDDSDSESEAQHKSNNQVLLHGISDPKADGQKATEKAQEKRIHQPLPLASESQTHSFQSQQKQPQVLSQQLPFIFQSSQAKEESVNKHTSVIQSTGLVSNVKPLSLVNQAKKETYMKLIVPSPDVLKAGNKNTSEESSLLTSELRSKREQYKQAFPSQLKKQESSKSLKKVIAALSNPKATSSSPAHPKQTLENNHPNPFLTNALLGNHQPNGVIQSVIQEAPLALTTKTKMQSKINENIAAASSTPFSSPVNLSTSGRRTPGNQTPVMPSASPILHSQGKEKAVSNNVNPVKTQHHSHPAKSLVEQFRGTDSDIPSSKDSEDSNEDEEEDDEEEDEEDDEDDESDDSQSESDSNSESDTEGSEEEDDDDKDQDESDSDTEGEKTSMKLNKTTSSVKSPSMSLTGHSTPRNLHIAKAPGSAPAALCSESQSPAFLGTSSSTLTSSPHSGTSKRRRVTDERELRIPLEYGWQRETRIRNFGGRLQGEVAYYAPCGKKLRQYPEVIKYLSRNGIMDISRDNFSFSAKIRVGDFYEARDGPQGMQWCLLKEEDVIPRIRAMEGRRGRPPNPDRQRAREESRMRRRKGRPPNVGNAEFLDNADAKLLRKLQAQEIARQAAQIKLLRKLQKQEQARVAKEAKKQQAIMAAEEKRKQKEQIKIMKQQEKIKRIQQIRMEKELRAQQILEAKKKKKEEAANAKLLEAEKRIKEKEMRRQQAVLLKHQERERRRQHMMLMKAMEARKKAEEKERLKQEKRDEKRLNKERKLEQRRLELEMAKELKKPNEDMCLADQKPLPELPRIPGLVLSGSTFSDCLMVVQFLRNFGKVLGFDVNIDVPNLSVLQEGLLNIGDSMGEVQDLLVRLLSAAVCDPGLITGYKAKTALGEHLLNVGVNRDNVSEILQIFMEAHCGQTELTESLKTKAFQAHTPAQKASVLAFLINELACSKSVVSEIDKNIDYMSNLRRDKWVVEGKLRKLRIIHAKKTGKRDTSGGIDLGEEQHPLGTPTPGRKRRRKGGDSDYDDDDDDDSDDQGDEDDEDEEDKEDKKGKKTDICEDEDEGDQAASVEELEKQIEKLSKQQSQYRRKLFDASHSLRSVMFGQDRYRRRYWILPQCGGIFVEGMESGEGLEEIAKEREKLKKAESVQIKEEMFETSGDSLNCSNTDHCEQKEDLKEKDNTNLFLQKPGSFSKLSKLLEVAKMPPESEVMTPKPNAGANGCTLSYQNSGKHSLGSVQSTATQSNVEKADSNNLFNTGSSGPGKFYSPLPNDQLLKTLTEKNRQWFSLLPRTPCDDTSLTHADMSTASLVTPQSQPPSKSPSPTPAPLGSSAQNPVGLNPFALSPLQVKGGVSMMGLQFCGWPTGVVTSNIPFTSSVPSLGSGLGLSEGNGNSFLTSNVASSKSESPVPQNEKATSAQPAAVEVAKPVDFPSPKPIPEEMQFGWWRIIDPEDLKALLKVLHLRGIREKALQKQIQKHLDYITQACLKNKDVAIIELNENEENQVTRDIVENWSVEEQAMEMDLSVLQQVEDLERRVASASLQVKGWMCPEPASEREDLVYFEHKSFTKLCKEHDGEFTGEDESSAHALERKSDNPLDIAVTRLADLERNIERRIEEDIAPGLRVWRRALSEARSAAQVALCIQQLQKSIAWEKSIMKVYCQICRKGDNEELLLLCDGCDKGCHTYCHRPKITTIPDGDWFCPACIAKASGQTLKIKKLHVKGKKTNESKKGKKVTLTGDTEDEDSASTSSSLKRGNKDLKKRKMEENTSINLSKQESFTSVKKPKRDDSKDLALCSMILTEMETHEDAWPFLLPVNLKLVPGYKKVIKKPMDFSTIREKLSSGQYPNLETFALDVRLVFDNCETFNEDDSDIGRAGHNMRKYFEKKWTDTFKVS", "test": "qHTS Assay for Inhibitors of BAZ2B; further: nearly all actives have a fitted effect of over 60% in size", "settings": "AlphaScreen BAZ2B-H3K14Ac peptide displacement; series mostly up to 114 µM", "method_in_brief": "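BAZ2B (50 nM) with biotin-H3(5-23)K14Ac peptide (50 nM) in PBS pH 7.4, 0.01% Tween-20, preformed 30 min, then compound 30 min at room temperature; top concentration 110uM. AlphaScreen streptavidin donor/nickel chelate acceptor beads (10 ug/mL final), 20 min dark, signal read.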"}
{"smiles": "COc1cccc(/C=C2\\SC(=S)NC2=O)c1OS(=O)(=O)c1ccc(NC(C)=O)cc1", "Potency": "inconclusive: 56.2 µM [inhibitor, partial curve]"}
{"smiles": "COc1ccc(C2C=C(c3ccc(C)cc3)Nc3ncnn32)cc1", "note": "(stereo unspecified)", "Potency": "inconclusive: 79.4 µM [inhibitor, single point]"}
{"smiles": "O=c1oc2cc(O)ccc2c2ccccc12", "Potency": "inconclusive: 89.1 µM [inhibitor, single point]"}
{"smiles": "Cc1cccc(-c2noc(CN(C(C)C)S(=O)(=O)c3ccc(Br)cc3)n2)c1", "Potency": "inactive"}
{"smiles": "CNCC(O)Cn1c2c(c3ccccc31)CCCC2", "note": "(stereo unspecified)", "Potency": "inconclusive: 44.7 µM [inhibitor, partial curve]"}
{"smiles": "Cc1ccc(C2=NCCn3nc4cc([N+](=O)[O-])ccc4c32)cc1", "Potency": "inconclusive: 89.1 µM [inhibitor, single point]"}
{"smiles": "CCOc1ccc(/C=C2\\SC(=S)N(CCCC(=O)NCCCN3CCOCC3)C2=O)cc1", "Potency": "inconclusive: 39.8 µM [inhibitor, partial curve]"}
{"smiles": "COc1ccc(-n2c(C)cc(C(=O)COC(=O)c3ccc(O)cc3O)c2C)cc1", "Potency": "inconclusive: 44.7 µM [inhibitor, partial curve]"}
{"smiles": "CCOC(=O)C(=O)NNc1ccccc1C", "Potency": "inactive"}
{"smiles": "COc1ccc(NC(C)=O)cc1NC(C)C(=O)Nc1ccc(S(=O)(=O)N2CCCCC2)cc1", "note": "(stereo unspecified)", "Potency": "inconclusive: 79.4 µM [inhibitor, single point]"}
{"smiles": "O=C(CN1CCSc2ccccc21)NCCCc1ccccc1", "Potency": "inconclusive: 39.8 µM [inhibitor, partial curve]"}
{"smiles": "CCC(=O)N1CCN(c2ccc(NC(=O)COc3ccccc3Cl)cc2)CC1", "Potency": "inactive"}
{"smiles": "CC1CCCN(S(=O)(=O)c2csc(C(N)=O)c2)C1", "note": "(stereo unspecified)", "Potency": "inconclusive: 89.1 µM [inhibitor, single point]"}
{"smiles": "O=[N+]([O-])c1cccc(N=Cc2sc3ccccc3c2O)c1", "Potency": "inconclusive: 79.4 µM [inhibitor, partial curve]"}
{"smiles": "O=C(Nc1ccccc1)c1cccc(S(=O)(=O)NCc2ccco2)c1", "Potency": "inconclusive: 89.1 µM [inhibitor, single point]"}
{"smiles": "Cc1nn(CC(O)CN2c3ccccc3Sc3ccccc32)c(C)c1Br", "note": "(stereo unspecified)", "Potency": "inconclusive: 50.1 µM [inhibitor, partial curve]"}
{"smiles": "CCN1CCN(C(=O)c2cc(-c3ccco3)nc3ccccc23)CC1", "Potency": "active: 70.8 µM"}
{"smiles": "COc1ccc(/C(N)=N/OC(=O)Cc2cccs2)cc1OC", "Potency": "inactive"}
{"smiles": "NNc1nnc2c3cc(F)ccc3n(Cc3ccccc3)c2n1", "Potency": "inconclusive: 79.4 µM [inhibitor, single point]"}
{"smiles": "C#CCOCCOCCOCCNc1nc(N2CCN(C(=O)[C@H](CCCCN)n3cc([C@@H](N)C(C)CC)nn3)CC2)nc(N2CCN(C(=O)[C@H](Cc3cc4ccccc4[nH]3)n3cc([C@@H](N)CC(C)C)nn3)CC2)n1", "note": "(stereo partly specified)", "Potency": "active: 31.6 µM"}
{"smiles": "Nc1ccc(S(=O)(=O)NNC(=O)C(=O)NNc2ccccc2)cc1", "Potency": "inactive"}
{"smiles": "CCCCS/C(=C(/C#N)C(N)=O)c1cc2c([nH]1)CCCC2", "Potency": "active: 39.8 µM"}
{"smiles": "CC(C)CCc1c(O)nc(SCC(=O)N2CCCCCC2)[nH]c1=O", "Potency": "inconclusive: 89.1 µM [inhibitor, single point]"}
{"smiles": "CCCN1CCc2c(sc(NC(=S)NC(=O)c3ccccc3)c2C#N)C1", "Potency": "inconclusive: 39.8 µM [inhibitor, partial curve]"}
{"smiles": "CCc1c(C)sc(NC(=O)c2cc(-c3ccc(OC)c(OC)c3)on2)c1C#N", "Potency": "inactive"}
{"smiles": "COc1ccc(CCNC(=O)c2ccc3[nH]c(C)c(C)c3c2)cc1OC", "Potency": "inconclusive: 56.2 µM [inhibitor, partial curve]"}
{"smiles": "Cc1cc2ncn(-c3ncnc4scc(-c5ccccc5)c34)c2cc1C", "Potency": "inconclusive: 89.1 µM [inhibitor, single point]"}
{"smiles": "COc1ccc(CN(CCC(c2ccccc2)c2ccco2)C(=O)c2ccco2)cc1", "note": "(stereo unspecified)", "Potency": "inconclusive: 44.7 µM [inhibitor, partial curve]"}
{"smiles": "Cn1c(=O)c2c(-c3ccc(Cl)cc3)ccnc2n(C)c1=O", "Potency": "inactive"}
{"smiles": "CCCSCCCNC(=O)c1ccccc1NC(=O)C1=CSCCO1", "Potency": "inconclusive: 70.8 µM [inhibitor, partial curve]"}
{"smiles": "O=[N+]([O-])c1ccc(N/N=C2/CCCCC2c2ccccn2)c([N+](=O)[O-])c1", "note": "(stereo unspecified)", "Potency": "active: 31.6 µM"}
{"smiles": "Fc1ccc(-[n+]2nc(Nc3ccccc3)sc2-c2ccc(OCc3ccccc3)cc2)cc1", "Potency": "inconclusive: 70.8 µM [inhibitor, single point]"}
{"smiles": "Cc1cccc(NC(=O)Cn2c(O)c(N=NC(N)=S)c3ccccc32)c1", "Potency": "inactive"}
{"smiles": "CCC(=O)N1CCN(c2ccc(NC(=S)NC(=O)COc3ccccc3)cc2)CC1", "Potency": "inconclusive: 20 µM [inhibitor, full curve]"}
{"smiles": "O=C(C[n+]1ccccc1)N/N=C/c1ccc(Cl)c(Cl)c1", "Potency": "active: 50.1 µM"}
{"smiles": "O=C(Nc1nc2ccccc2[nH]1)C1CCCC1", "Potency": "inconclusive: 63.1 µM [inhibitor, partial curve, poor fit]"}
{"smiles": "NS(=O)(=O)c1ccc(NS(=O)(=O)c2ccc(NC(=O)C3CC3)cc2)cc1", "Potency": "inconclusive: 79.4 µM [inhibitor, single point]"}
{"smiles": "COc1cccc(Cc2n[nH]c(=S)n2Cc2ccco2)c1", "Potency": "inactive"}
{"smiles": "CCn1c2ccccc2c2cc(CNCc3ccc(OC)cc3OC)ccc21", "Potency": "active: 44.7 µM"}
{"smiles": "COc1cccc(NC(=O)COC(=O)c2ccc(S(=O)(=O)NCc3ccco3)cc2)c1", "Potency": "inconclusive: 89.1 µM [inhibitor, single point]"}
{"smiles": "CSc1cccc(N2CC(C(=O)Nc3ccccc3N3CCCC3)CC2=O)c1", "note": "(stereo unspecified)", "Potency": "inconclusive: 50.1 µM [inhibitor, partial curve]"}
{"smiles": "Cc1ccn2c(c1)nc(=O)c1cc(S(=O)(=O)N3CCC(C)CC3)ccc12", "Potency": "inconclusive: 79.4 µM [inhibitor, single point]"}
{"smiles": "O=C(N/N=C/C(Br)=C/c1ccccc1)c1cnccn1", "Potency": "inactive"}
{"smiles": "CC(Nc1[nH]c(=O)n(C)c(=O)c1N=O)c1ccccc1", "note": "(stereo unspecified)", "Potency": "inconclusive: 89.1 µM [inhibitor, single point]"}
{"smiles": "Cc1nc(SCC(=O)NC(=O)NCc2ccco2)nc(C)c1C", "Potency": "inconclusive: 50.1 µM [inhibitor, partial curve]"}
{"smiles": "COc1cccc(C(=O)NNC(=S)NC2CCCCC2)c1", "Potency": "inactive"}
{"smiles": "CSc1nc(NCc2ccco2)c2c3c(sc2n1)CN(C)CC3", "Potency": "inconclusive: 56.2 µM [inhibitor, partial curve]"}
{"smiles": "CC(C)c1nnc(NC(=O)CS(=O)(=O)c2ccccc2)s1", "Potency": "inactive"}
{"smiles": "NCc1cc2c3c(c1)CCCN3CCC2", "Potency": "active: 50.1 µM"}
{"smiles": "Cc1ccc(S(=O)(=O)c2nnn3c2nc(NC2CCCCC2)c2sccc23)cc1C", "Potency": "inactive"}
{"smiles": "N#Cc1c(Nc2cccc(F)c2)sc2c(O)cc(=O)[nH]c12", "Potency": "inconclusive: 39.8 µM [inhibitor, partial curve]"}
{"smiles": "Cc1csc(NC(=O)Nc2ccccc2[N+](=O)[O-])n1", "Potency": "inconclusive: 79.4 µM [inhibitor, single point]"}
{"smiles": "COC(=O)Nc1ccc(S(=O)(=O)N2CCN(C)CC2)cc1", "Potency": "inactive"}
{"smiles": "Cc1nn(Cc2ccccc2)c(C)c1/C=N/NC(=O)c1ccccc1O", "Potency": "inactive"}
{"smiles": "CS(=O)(=O)N(CC(=O)NCc1ccccn1)Cc1ccc(Cl)cc1", "Potency": "inconclusive: 89.1 µM [inhibitor, single point]"}
{"smiles": "C/C(=N\\Nc1cccc2cccnc12)c1ccc[nH]1", "Potency": "inconclusive: 10 µM [inhibitor, partial curve]"}
{"smiles": "Cc1cc(C)c(S(=O)(=O)Nc2ccccc2C(=O)N2CCOCC2)c(C)c1", "Potency": "inconclusive: 89.1 µM [inhibitor, single point]"}
{"smiles": "CC(c1ccccn1)N(CCN(C)C)C(=S)Nc1ccccc1F", "note": "(stereo unspecified)", "Potency": "inconclusive: 89.1 µM [inhibitor, single point]"}
{"smiles": "COc1cccc(CNS(=O)(=O)c2c(C(=O)N3CCCC3)c(C)n(C)c2C)c1", "Potency": "inconclusive: 79.4 µM [inhibitor, single point]"}
{"smiles": "CCCCN(C)C(=O)c1ccc2c(c1)NC(=O)C(CC(C)C)N2", "note": "(stereo unspecified)", "Potency": "inactive"}
{"smiles": "N#Cc1nc(-c2ccco2)oc1NCc1ccc(F)cc1", "Potency": "inconclusive: 50.1 µM [inhibitor, partial curve]"}
{"smiles": "CSc1ccccc1NC(=O)c1ccc([N+](=O)[O-])cc1", "Potency": "inconclusive: 79.4 µM [inhibitor, single point]"}
{"smiles": "NC(=O)C[C@@H]1NC(=O)c2cc([N+](=O)[O-])cc(F)c2NCCCC[C@@H](C(N)=O)NC(=O)[C@H](CO)NC1=O", "Potency": "inconclusive: 89.1 µM [inhibitor, partial curve]"}
{"smiles": "CCOc1ccccc1CNC(=O)CN1C(=O)c2cccnc2Oc2ccc(C)cc21", "Potency": "inactive"}
{"smiles": "COc1ccc(C(C)C)cc1S(=O)(=O)NCCc1c(C)[nH]c2c(Cl)cccc12", "Potency": "active: 28.2 µM"}
{"smiles": "Cc1ccc(NC(=O)CN(c2ccc(Cl)cc2)S(=O)(=O)c2cc([N+](=O)[O-])ccc2Cl)c(C)c1", "Potency": "inconclusive: 35.5 µM [inhibitor, partial curve]"}
{"smiles": "Cc1ccc2[nH]c3c(c2c1)CN(C(=O)CN1c2ccc(F)cc2CCC1C)CC3", "note": "(stereo unspecified)", "Potency": "active: 39.8 µM"}
{"smiles": "Cc1c(N=CC=Nc2c(C)n(C)n(-c3ccccc3)c2=O)c(=O)n(-c2ccccc2)n1C", "Potency": "inactive"}
{"smiles": "COc1ccc(-n2ccnc(NCCc3ccc(S(N)(=O)=O)cc3)c2=O)cc1Cl", "Potency": "inactive"}
{"smiles": "O=C(NN1C(=O)C2C3C=CC(C4CC34)C2C1=O)c1ccc(Cl)cc1Cl", "note": "(stereo unspecified)", "Potency": "inconclusive: 89.1 µM [inhibitor, single point]"}
{"smiles": "COc1cc(C2CC(=O)N3CN(c4ccccc4C)CSC3=C2C#N)cc(OC)c1OC", "note": "(stereo unspecified)", "Potency": "inconclusive: 79.4 µM [inhibitor, single point]"}
